The assay addresses T1, ectodomain of IL-13Rα2 (ecto-IL-13Rα2), labelled (UniProt Q14627).
T1 sequence (chain, BODPY-TRM-X-succinimidyl ester label): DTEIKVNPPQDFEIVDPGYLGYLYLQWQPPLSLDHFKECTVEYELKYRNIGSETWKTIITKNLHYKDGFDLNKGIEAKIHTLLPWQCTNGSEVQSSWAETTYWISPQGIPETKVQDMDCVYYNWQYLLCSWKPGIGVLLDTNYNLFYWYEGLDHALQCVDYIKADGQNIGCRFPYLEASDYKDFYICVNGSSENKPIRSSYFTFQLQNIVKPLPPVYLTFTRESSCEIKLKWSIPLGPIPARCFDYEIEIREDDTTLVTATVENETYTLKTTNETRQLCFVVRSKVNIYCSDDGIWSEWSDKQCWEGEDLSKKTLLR
Description: fluorescence polarisation; fluorescence anisotropy; serial dilutions of TMEM219 in 13 nm nanodisc (10 nM-10 μM) added to 10 nM labelled protein or complex; PBS for labelling; empty nanodisc as control; both purified. In general terms: Fluorescence polarisation rises when a labelled molecule tumbles more slowly, as on binding a larger partner.

Amino acid sequences for entries named in this document (tags omitted). Residues count along the entry.
UniProt P36222, residues 22-383: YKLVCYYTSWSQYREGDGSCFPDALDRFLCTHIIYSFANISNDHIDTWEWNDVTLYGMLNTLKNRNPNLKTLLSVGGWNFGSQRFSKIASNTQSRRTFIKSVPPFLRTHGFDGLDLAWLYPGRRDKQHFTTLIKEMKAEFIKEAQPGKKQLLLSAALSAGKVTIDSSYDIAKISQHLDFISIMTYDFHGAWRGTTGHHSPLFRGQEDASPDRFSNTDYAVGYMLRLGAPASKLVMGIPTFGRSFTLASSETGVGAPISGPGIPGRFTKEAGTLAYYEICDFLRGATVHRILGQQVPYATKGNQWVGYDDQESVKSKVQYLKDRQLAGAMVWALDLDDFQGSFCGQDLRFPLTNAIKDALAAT

These are yes or no findings as the source states them, for the method shown. Some results given as binding are weak or reduced against the parent protein; the word gives no strength.

“Chi3l1 (chitinase 3-like-1), expressed in insect cells, labelled (from UniProt P36222 22-383) (ligand)”: the binding result is “binds”.

The values above are taken from paper PMC5027616.
